Assay results published in PubChem BioAssay AID1347073 (National Center for Advancing Translational Sciences (NCATS), 2019).
Out of some 45,000 compounds screened, about 200 (0.44%) were called active. About 7% were inconclusive and are not listed. The call rests on the fitted dose curve; in most records, active means well fitted activation curve with a large enough effect; inconclusive means small, poorly fitted or top-dose-only effect; inactive means no such curve, though single readings can be large or run the other way. This is one part of the list.

Experiment: qHTS of TDP-43 Inhibitors: NCGC Sytravon Library Screen; further: 0% is about no effect; nearly all actives have a fitted effect of over 55% in size
Conditions: yeast TDP-43 toxicity rescue, BacTiter-Glo growth, 24 h; series mostly up to 46.1 µM; growth rescue (activation): at the top concentration
Method in brief: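 TDP-43-expressing yeast, pregrown in raffinose, seeded at OD600 0.02 in galactose medium with compound for 24 hr at 30 deg C. Growth read by BacTiter-Glo luminescence, so rescue of toxicity appears as activation.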

Row | SMILES | growth rescue (activation)
1 | CNC(=O)CS(=O)CC(=O)Nc1cc(OCCOC)c(Cl)cc1Cl (stereo unspecified) | inactive: 2.77%
2 | COc1cc(SC)ccc1C(=O)OCC(=O)N1CCCC1 | inactive: 9.8%
3 | CC(C)c1ccc(CNc2nc(NCC3CC3)nc3ccsc23)cc1 | inactive: 10.6%
4 | CCN(CC)S(=O)(=O)c1ccc(N2CCOCC2)c(NS(=O)(=O)c2cc(C(C)(C)C)ccc2C)c1 | inactive: -11.3%
5 | Cn1c(N)c(C(=O)COC(=O)/C=C/c2ccccc2F)c(=O)n(C)c1=O | inactive: 4.25%
6 | CCCCNC(=S)Nc1ccc2nc(N3CCN(CC)CC3)cc(C)c2c1 | inactive: 7.66%
7 | COc1ccccc1NS(=O)(=O)c1cc([N+](=O)[O-])ccc1N/N=C/c1sc(N2CCOCC2)nc1-c1ccccc1 | inactive: -2.12%
8 | CCOc1cccc(C(=O)NC(=S)Nc2ccccc2)c1 | inactive: 24.7%
9 | COc1ccc(NC(=O)CSCc2ccc(C)cc2)cc1 | inactive: 26.5%
10 | COc1ccc(-c2c[n+]3c(n2-c2ccccc2)SCC3)cc1 | inactive: 2.65%
11 | COc1ccc(CCN(C)C2CCCN(S(=O)(=O)N(C)C)C2)cc1OC (stereo unspecified) | inactive: 3.85%
12 | COC(=O)c1ccccc1Sc1c(/C=N/OC(=O)c2ccccc2)c(C(F)(F)F)nn1C | inactive: 24.2%
13 | CCNC(=O)CNC(=O)c1nn(Cc2ccccc2)c(=O)c2ccccc12 | inactive: 5.94%
14 | CCCC1=C(C(=O)OCC)C(c2ccccc2OC)NC(=O)N1 (stereo unspecified) | inactive: -2.4%
15 | CC1CN(C(=O)/C=C/c2ccc(SC(F)F)cc2)CC(C)O1 (stereo unspecified) | inactive: -5.95%
16 | O=C1CCCN1CC(=O)N1CCCC(N2CCN(c3cccc(Cl)c3)CC2)C1 (stereo unspecified) | inactive: -13.9%
17 | CCCCC(=O)NC(Nc1sc2c(c1C(N)=O)CCCC2)(C(=O)OCC)C(F)(F)F (stereo unspecified) | inactive: 2.16%
18 | S=C(Nc1ccc(Nc2ccccc2)cc1)NC1CCCCCC1 | inactive: 7.83%
19 | CC1=C(C(=O)OCc2ccccc2)C(c2ccc(N3CCOCC3)cc2)NC(=O)N1 (stereo unspecified) | inactive: 17.4%
20 | COc1cc(N)c(Cl)cc1C(=O)OCC(=O)N1c2ccccc2NC(=O)C1(C)C | inactive: 8.36%
21 | O=C(c1nn2c(C(F)(F)F)cc(-c3cccs3)nc2c1Br)N1CCCc2ccccc21 | inactive: 7.71%
22 | COC(=O)c1ccc(C2NC(=O)c3ccccc3O2)cc1 (stereo unspecified) | inactive: 26.2%

Row | SMILES | growth rescue (activation)
23 | COc1cc(/C=C/C(=O)O)cc(Br)c1O | inactive: 28.7%
24 | CN(c1ccc(OCC(=O)N2CCOCC2)cc1)S(=O)(=O)c1ccc(Cl)cc1 | inactive: 9.27%
25 | Cc1cc(Oc2nc3c(C)cccn3c(=O)c2/C=C(\C#N)S(=O)(=O)c2ccc(Cl)cc2)ccc1Cl | inactive: -18.9%
26 | CCOC(=O)c1ccc(NC(=S)N2CCN(c3ccc(N4CCOCC4)nn3)CC2)cc1 | inactive: 3.88%
27 | O=S(=O)(Nc1cccc2ccccc12)c1ccccc1 | inactive: 16.3%
28 | Cc1cc(NC(=O)COC(=O)c2c(C)c(C)c(C)c(C)c2C)no1 | inactive: 40.7%
29 | O=C(OCc1ccc(Br)cc1F)c1cc2ccccc2oc1=O | inactive: -12.9%
30 | CC(C)CCC(C)NC(=O)C1CCN(S(=O)(=O)/C=C/c2ccccc2)CC1 (stereo unspecified) | inactive: 0.599%
31 | COC(=O)C1=CN(c2ccc(F)cc2)C=C(C(=O)OC)C1c1ccc([N+](=O)[O-])cc1 | inactive: 7.09%
32 | N#CCO/N=C/C(=O)Nc1ccc(F)cc1F | inactive: 2.63%
33 | C/C(=N\Nc1ccc([N+](=O)[O-])cc1)c1ccc(N2CCOCC2)cc1 | inactive: -4.43%
34 | CCNC(=S)N/N=C/c1ccc(C#N)cc1 | inactive: -21.7%
35 | CCC(C)c1c(O)nc(SCC(=O)N2CCCCCC2)[nH]c1=O (stereo unspecified) | inactive: 9.08%
36 | CCOC(=O)C1CCN(c2ccc(Cl)nn2)CC1 | inactive: 8.08%
37 | CCC(=O)Nc1cccc(NC(=O)c2ccccc2Cl)c1 | inactive: -0.74%
38 | Cc1nn(-c2ccccc2)c(N2CCCC2)c1/C=N/NC(=O)c1cc(-c2ccccc2)nc2ccccc12 | inactive: -0.208%
39 | O=C(NC(=S)Nc1ccc(NC(=O)c2cccs2)cc1)c1ccco1 | inactive: 12.3%
40 | COc1ccc(S(=O)(=O)Nc2c(C)cccc2C)cc1-n1cnnn1 | inactive: 10.8%
41 | Cc1ccc(N2CCN(C(=O)C3CCN(S(=O)(=O)c4cccc5nsnc45)CC3)CC2C)cc1 (stereo unspecified) | inactive: 8.07%
42 | COC(=O)c1sccc1S(=O)(=O)NC(C)c1cnn(-c2ccc(OC)cc2)c1C (stereo unspecified) | inactive: 1.37%
43 | COc1cccc(C(=O)NNC(=O)c2cccnc2)c1 | inactive: -5.44%
44 | COc1ccc(-n2nc(C(=O)NCC(=O)N3CCCCCC3)c3ccccc3c2=O)cc1OC | inactive: 23%

Row | SMILES | growth rescue (activation)
45 | O=C(Nc1ccc(Cl)cc1)Nc1nnc(CSc2ccc(Cl)cc2)s1 | inactive: 5.07%
46 | COc1ccccc1NC(=S)NCc1cccnc1 | inactive: 0.269%
47 | CCN(CC)CCCN1C(=O)C2C(C(=O)Nc3ccc(C(C)C)cc3)C3C=CC2(O3)C1C(=O)NC1CCCCC1 (stereo unspecified) | inactive: 6.16%
48 | Cc1nc(CNS(=O)(=O)c2ccc(Br)cc2)cs1 | inactive: 9.44%
49 | O=S(=O)(c1ccc(NC(=S)NC2CC2)cc1)N1CCOCC1 | inactive: 0.98%
50 | O=C(CCCCl)NC(=S)Nc1ccc(N2CCOCC2)cc1 | inactive: 6.96%
51 | CCc1nn2c(=O)c(S(=O)(=O)Nc3ccccc3)c(C)nc2s1 | inactive: 4.09%
52 | CNc1nc(-c2ccc3c(c2)CCN3C(=O)c2ccccc2C)cs1 | inactive: 24.8%
53 | COc1ccc(CC(=O)NCC(=O)N/N=C(/C)c2ccco2)cc1 | inactive: -0.354%
54 | Brc1ccc(OCCOc2cccc3cccnc23)cc1 | inactive: 25.8%
55 | CCC(c1nnc(SCC(=O)Nc2ccc(C(C)=O)cc2)n1C1CCCCC1)N(C)C (stereo unspecified) | inactive: 6.72%
56 | O=[N+]([O-])c1ccccc1C1Nc2cccc3cccc(c23)N1 | inactive: 29.9%
57 | COCCNC(=S)N/N=C/c1ccc(N2CCOCC2)cc1 | inactive: 9.47%
58 | COCCn1c(C)cc(C2=NNC(=NC(C)(C)C)SC2)c1C | inactive: -6.97%
59 | CC(C)N(Cc1cc2ccccc2[nH]c1=O)C(=O)C1CCCCC1 | inactive: 6.47%
60 | O=C(CNC(=O)C1COc2ccccc2O1)N/N=C/c1cc(Br)c(O)c(Br)c1 (stereo unspecified) | inactive: -2.21%
61 | CCOC(=O)c1c(NC(=O)C2(C)Cc3ccccc3C(=O)O2)sc2c1CCCC2 (stereo unspecified) | inactive: -6.99%
62 | Cc1ccc(C(=O)Nc2cccc(C(=O)N/N=C/c3ccc(O)cc3)c2)cc1 | inactive: -7.01%
63 | C/C(=N\NC(=O)CSc1nnc(C)s1)c1ccc(Cl)cc1 | inactive: 18.3%
64 | CCc1ccc(CN(Cc2ccco2)C(=O)c2cc(-c3ccc(C)c(F)c3)on2)cc1 | inactive: 7.91%
65 | COc1ccc(NC(=O)C2(C)Cc3c(-c4ccc(N(C)C)cc4)ccnc3O2)cc1OC (stereo unspecified) | inactive: -8.2%
66 | O=C(NCc1cccs1)C1CCCN1C(=O)Nc1cccc(F)c1 (stereo unspecified) | inactive: 4.41%

Row | SMILES | growth rescue (activation)
67 | O=[N+]([O-])c1ccc(N2CCCCC2)cc1NCCOc1ccccc1 | inactive: -8.69%
68 | CCOC(=O)N1CCN(Cc2nc(-c3cccc(Cl)c3)no2)CC1 | inactive: 19.1%
69 | Cc1ccc(NC(=O)c2cc(-c3ccccc3)nn2-c2ccccc2)c(Br)c1 | inactive: 2.87%
70 | Cc1ccc(NC(=O)CCNC(=O)Cn2ccc3ccccc3c2=O)cc1F | inactive: -11.8%
71 | COc1ccc(OC)c(S(=O)(=O)N2CCC(C(=O)NCc3cccnc3)CC2)c1 | inactive: 9.19%
72 | O=C(NCc1cccs1)c1cc(S(=O)(=O)N2CCOCC2)ccc1N1CCCC1 | inactive: 8.16%
73 | COc1ccc(N=Cc2oc3ccc4ccccc4c3c2O)cc1 | inactive: 6.7%
74 | CCc1nc(Cl)c(C#N)c2c1CCCC2 | inactive: 16.6%
75 | CCC(=O)N1CCCC(C)(C(=O)Nc2nccc3ccccc23)C1 (stereo unspecified) | inactive: 7.14%
76 | O=C(Cc1c(F)cccc1Cl)Nc1ccccc1-c1ccccc1 | inactive: -12.1%
77 | COc1ccccc1OCc1ccc(C(=O)OCC2CCCO2)o1 (stereo unspecified) | inactive: 6.19%
78 | Cc1c2cnn(-c3ccccc3)c(=O)c2c(C)n1CCCC(=O)NCCN1CCN(C)CC1 | inactive: -6.72%
79 | CC(=O)Nc1ccc(Nc2ncc([N+](=O)[O-])c(Nc3ccc(NC(C)=O)cc3)n2)cc1 | inactive: 13.5%
80 | Cc1ccc(-n2cc(CNCCCN3CCCC3=O)c(-c3ccc(F)cc3)n2)cc1 | inactive: 6.07%
81 | Cc1cccc(N2CC(C(=O)Nc3ccc(S(=O)(=O)N4CCOCC4)cc3)CC2=O)c1C (stereo unspecified) | inactive: -2.36%
82 | COc1cc(C(=O)NCCNC(=O)c2ccc(C)nc2)cc(OC)c1OC | inactive: 18.4%
83 | Cc1sc(NC(=O)c2ccccc2)c(C(c2ccc(Cl)cc2)N2CCN(CCO)CC2)c1C (stereo unspecified) | inactive: 10.3%
84 | Cc1c([N+](=O)[O-])cc(C(=O)NCc2ccc(F)cc2)cc1[N+](=O)[O-] | inactive: 14.1%
85 | O=C(CSc1ccc(F)cc1)NNC(=O)c1ccccc1Br | inactive: 10.4%
86 | Cc1cc(C)c(NC(=O)C2CCCO2)c(C)c1NC(=O)C1CCCO1 (stereo unspecified) | inactive: -1.3%
87 | O=C(CCCc1ccccc1)NC1CC(=O)N(c2cccc(F)c2)C1 (stereo unspecified) | inactive: 12.5%
88 | CCOCCCn1c(=N)c(S(=O)(=O)c2ccc(C)cc2)cc2c(=O)n3cc(C)ccc3nc21 | inactive: 2.73%

Row | SMILES | growth rescue (activation)
89 | CCNC(=O)C1(C)CCN(C(=O)c2ccccc2OC(F)(F)F)C1 (stereo unspecified) | inactive: 1.84%
90 | Cc1csc2nc(COC(=O)c3ccc(Cl)c([N+](=O)[O-])c3)cc(=O)n12 | inactive: 12.8%
91 | CCOC(=O)c1cc2c(=O)n3ccccc3nc2n(C)c1=NC(=O)c1c(-c2c(F)cccc2Cl)noc1C | inactive: 32.2%
92 | CC(=O)Nc1ccc(-c2csc(NC(C)c3ccccc3)n2)cc1 (stereo unspecified) | inactive: 14.8%
93 | COc1ccc(CNCc2cccc(Cl)c2)cc1 | inactive: -10.2%
94 | CN(C)S(=O)(=O)c1ccc(NC(=O)C2CCCN(C(=O)c3ccc(Cl)cc3)C2)cc1 (stereo unspecified) | inactive: -1.02%
95 | NC(=O)C1CCN(C(=O)C2(NC(=O)Nc3cccc(F)c3)CCCCC2)CC1 | inactive: 6.62%
96 | C/C(CC(=O)Nc1ccccc1-c1ccccc1)=N\NC(=O)COc1ccc(C)cc1Br | inactive: 19.7%
97 | Cc1nn(C)cc1S(=O)(=O)N1CCCC(C(=O)O)C1 (stereo unspecified) | inactive: 6.13%
98 | CCc1nc2ccc(C(=O)NCCCN(C)C)cn2c1N(CC)CCOC | inactive: 2.38%
99 | COCCCn1cnc2oc3nc4ccccc4nc3c2c1=O | inactive: 23.4%
100 | COCCCNC(=O)c1cc2c(-c3cccc(OC)c3)nn(C)c2s1 | inactive: 21.6%
101 | O=C(CN1C(=O)NC2(CCCC2)C1=O)N1CCc2ccccc2C1 | inactive: 0.557%
102 | Cc1ccc(S(=O)(=O)N(C)C)cc1NC(=O)C(C)NC(C)c1cccs1 (stereo unspecified) | inactive: -9.78%
103 | O=C(CN1CCOCC1)N1CCc2ccccc2C(c2ccccc2)C1 (stereo unspecified) | inactive: 15.2%
104 | CCCN(CC(=O)Nc1cc(C)on1)S(=O)(=O)c1cccc(C(F)(F)F)c1 | inactive: 14.7%
105 | COc1cccc(/C=N/Nc2snc(SC)c2C#N)c1O | inactive: -9.71%
106 | COc1ccc(-c2cc(C(=O)N3CCCCC3C)no2)cc1OC (stereo unspecified) | inactive: 21.2%
